Patent US9394327B1, “Nucleoside crystals, crystal nucleation and growth control with antifreeze proteins” (The Trustees of California State University, priority 2013, dated 2016)
Entries with a single value are a further part of the results.

Test: DSC thermodynamic stability analysis of m^5U forms
Assay type: physicochemical
Conditions: heated 25 to 200° C. at 5° C./min
Method: Thermodynamic Stability Analysis. Both forms of m^5U were analyzed by DSC (FIG. 20). […] The first endotherm associated with water loss is at 139.07° C., whereas the second endotherm ascribed to the melting is at 185.65° C. […] Form II starts losing water and then melts at relatively lower temperatures than those of form I. The enthalpy profiles for both forms are compared in FIG. 21.
All experiments were performed with a DSC 1 (Mettler Toledo, Ohio). An indium standard (Mettler Toledo, Ohio) was used to calibrate the instrument. Samples weighed 3-4 mg and were hermetically encapsulated in standard aluminum sample pans with pierced lids to release any pressure build-up during the experiments. The samples were heated from 25 to 200° C. at a rate of 5° C./min.

DSC endotherm associated with water loss (first water molecule loss endotherm): 137.04 °C
DSC endotherm associated with water loss (second water molecule loss endotherm): 153.72 °C
Compound: Cc1cn([C@@H]2O[C@H](CO)[C@@H](O)[C@H]2O)c(=O)[nH]c1=O [form II, 5-methyluridine]
